# Test system: SU5416/hypoxia/normoxia-exposed rats with PAH
smiles,measurement,setting,value
"O=S(=O)(c1cccc2cnccc12)N1CCCNCC1 [Fasudil, fasudil]",pulmonary-specific blood pressure effect,10 mg/kg of fasudil 30 minutes after cessation of tCAR infusion,"still resulted in a sustained, pulmonary-specific effect"
same,RVSP,"Table 4, fasudil 10 mg/kg after cessation of CARK (tCAR) infusion, baseline 84.6",27.2 mmHg
same,LVSP,"Table 4, fasudil 10 mg/kg after cessation of CARK (tCAR) infusion, baseline 140.6",107.7 mmHg

# Source: US20120034164A1, “TRUNCATED CAR PEPTIDES AND METHODS AND COMPOSITIONS USING TRUNCATED CAR PEPTIDES” (Sanford-Burnham Medical Research Institute California, priority 2010, published 2012)
